Measurements reported in the supplement of paper PMC12423691.
Some of the results follow. Binding of human transcription factors and regulators to the viral nucleoprotein by AlphaScreen, crude cell-free proteins, amounts not normalised, one pass. Fold of the Venus control; higher = more signal. No active / inactive call. Single-pass screen; sequences are the whole Swiss-Prot entries looked up by name.

B1: ZFP42, Q96MM3 (protein)
chain: MSQQLKKRAKTRHQKGLGGRAPSGAKPRQGKSSQDLQAEIEPVSAVWALCDGYVCYEPGPQALGGDDFSDCYIECVIRGEFSQPILEEDSLFESLEYLKKGSEQQLSQKVFEASSLECSLEYMKKGVKKELPQKIVGENSLEYSEYMTGKKLPPGGIPGIDLSDPKQLAEFARKKPPINKEYDSLSAIACPQSGCTRKLRNRAALRKHLLIHGPRDHVCAECGKAFVESSKLKRHFLVHTGEKPFRCTFEGCGKRFSLDFNLRTHVRIHTGEKRFVCPFQGCNRRFIQSNNLKAHILTHANTNKNEQEGK
B2: TFEC, O14948 (protein)
chain: MTLDHQIINPTLKWSQPAVPSGGPLVQHAHTTLDSDAGLTENPLTKLLAIGKEDDNAQWHMEDVIEDIIGMESSFKEEGADSPLLMQRTLSGSILDVYSGEQGISPINMGLTSASCPSSLPMKREITETDTRALAKERQKKDNHNLIERRRRYNINYRIKELGTLIPKSNDPDMRWNKGTILKASVEYIKWLQKEQQRARELEHRQKKLEQANRRLLLRIQELEIQARTHGLPTLASLGTVDLGAHVTKQQSHPEQNSVDYCQQLTVSQGPSPELCDQAIAFSDPLSYFTDLSFSAALKEEQRLDGMLLDDTISPFGTDPLLSATSPAVSKESSRRSSFSSDDGDEL
B3: CRTC2, Q53ET0 (protein)
chain: MATSGANGPGSATASASNPRKFSEKIALQKQRQAEETAAFEEVMMDIGSTRLQAQKLRLAYTRSSHYGGSLPNVNQIGSGLAEFQSPLHSPLDSSRSTRHHGLVERVQRDPRRMVSPLRRYTRHIDSSPYSPAYLSPPPESSWRRTMAWGNFPAEKGQLFRLPSALNRTSSDSALHTSVMNPSPQDTYPGPTPPSILPSRRGGILDGEMDPKVPAIEENLLDDKHLLKPWDAKKLSSSSSRPRSCEVPGINIFPSPDQPANVPVLPPAMNTGGSLPDLTNLHFPPPLPTPLDPEETAYPSLSGGNSTSNLTHTMTHLGISRGMGLGPGYDAPGLHSPLSHPSLQSSLSNPNLQASLSSPQPQLQGSHSHPSLPASSLARHVLPTTSLGHPSLSAPALSSSSSSSSTSSPVLGAPSYPASTPGASPHHRRVPLSPLSLLAGPADARRSQQQLPKQFSPTMSPTLSSITQGVPLDTSKLSTDQRLPPYPYSSPSLVLPTQPHTPKSLQQPGLPSQSCSVQSSGGQPPGRQSHYGTPYPPGPSGHGQQSYHRPMSDFNLGNLEQFSMESPSASLVLDPPGFSEGPGFLGGEGPMGGPQDPHTFNHQNLTHCSRHGSGPNIILTGDSSPGFSKEIAAALAGVPGFEVSAAGLELGLGLEDELRMEPLGLEGLNMLSDPCALLPDPAVEESFRSDRLQ
B4: ZNF354C, Q86Y25 (protein)
chain: MAVDLLSAQEPVTFRDVAVFFSQDEWLHLDSAQRALYREVMLENYSSLVSLGIPFSMPKLIHQLQQGEDPCMVEREVPSDTRLGFKTWLETEALPHRQDIFIEETSQGMVKKESIKDGHWDINFEEAVEFESEIEEEQEKKPLRQMIDSHEKTISEDGNHTSLELGKSLFTNTALVTQQSVPIERIPNMYYTFGKDFKQNFDLMKCFQIYPGGKPHICNECGKSFKQNLHLIEHQRIHTGEKPYKCNECEKTFSHRSSLLSHQRIHTGEKPYKCNECEKAFSNSSTLIKHLRVHTGEKPYRCRECGKAFSQCSTLTVHQRIHTGEKLYKCGECEKAFNCRAKLHRHQRIHTGEKPYKCSECGKGYSQFTSLAEHQRFHTGEQLYTCLECGRTFTRIVTLIEHQRIHTGQKPYQCNECEKAFNQYSSFNEHRKIHTGEKLYTCEECGKAFGCKSNLYRHQRIHTGEKPYQCNQCGKAFSQYSFLTEHERIHTGEKLYKCMECGKAYSYRSNLCRHKKVHTKEKLYKWKEYGKPFICSSSLTQYQRFFKGDKAYEV
B5: RUNX3, Q13761 (protein)
chain: MRIPVDPSTSRRFTPPSPAFPCGGGGGKMGENSGALSAQAAVGPGGRARPEVRSMVDVLADHAGELVRTDSPNFLCSVLPSHWRCNKTLPVAFKVVALGDVPDGTVVTVMAGNDENYSAELRNASAVMKNQVARFNDLRFVGRSGRGKSFTLTITVFTNPTQVATYHRAIKVTVDGPREPRRHRQKLEDQTKPFPDRFGDLERLRMRVTPSTPSPRGSLSTTSHFSSQPQTPIQGTSELNPFSDPRQFDRSFPTLPTLTESRFPDPRMHYPGAMSAAFPYSATPSGTSISSLSVAGMPATSRFHHTYLPPPYPGAPQNQSGPFQANPSPYHLYYGTSSGSYQFSMVAGSSSGGDRSPTRMLASCTSSAASVAAGNLMNPSLGGQSDGVEADGSHSNSPTALSTPGRMDEAVWRPY
B6: PRKCZ, Q05513 (protein)
chain: MPSRTGPKMEGSGGRVRLKAHYGGDIFITSVDAATTFEELCEEVRDMCRLHQQHPLTLKWVDSEGDPCTVSSQMELEEAFRLARQCRDEGLIIHVFPSTPEQPGLPCPGEDKSIYRRGARRWRKLYRANGHLFQAKRFNRRAYCGQCSERIWGLARQGYRCINCKLLVHKRCHGLVPLTCRKHMDSVMPSQEPPVDDKNEDADLPSEETDGIAYISSSRKHDSIKDDSEDLKPVIDGMDGIKISQGLGLQDFDLIRVIGRGSYAKVLLVRLKKNDQIYAMKVVKKELVHDDEDIDWVQTEKHVFEQASSNPFLVGLHSCFQTTSRLFLVIEYVNGGDLMFHMQRQRKLPEEHARFYAAEICIALNFLHERGIIYRDLKLDNVLLDADGHIKLTDYGMCKEGLGPGDTTSTFCGTPNYIAPEILRGEEYGFSVDWWALGVLMFEMMAGRSPFDIITDNPDMNTEDYLFQVILEKPIRIPRFLSVKASHVLKGFLNKDPKERLGCRPQTGFSDIKSHAFFRSIDWDLLEKKQALPPFQPQITDDYGLDNFDTQFTSEPVQLTPDDEDAIKRIDQSEFEGFEYINPLLLSTEESV
B7: HMG20A, Q9NP66 (protein)
chain: MENLMTSSTLPPLFADEDGSKESNDLATTGLNHPEVPYSSGATSSTNNPEFVEDLSQGQLLQSESSNAAEGNEQRHEDEQRSKRGGWSKGRKRKKPLRDSNAPKSPLTGYVRFMNERREQLRAKRPEVPFPEITRMLGNEWSKLPPEEKQRYLDEADRDKERYMKELEQYQKTEAYKVFSRKTQDRQKGKSHRQDAARQATHDHEKETEVKERSVFDIPIFTEEFLNHSKAREAELRQLRKSNMEFEERNAALQKHVESMRTAVEKLEVDVIQERSRNTVLQQHLETLRQVLTSSFASMPLPGSGETPTVDTIDSYMNRLHSIILANPQDNENFIATVREVVNRLDR
B8: SP100, P23497 (protein)
chain: MAGGGGDLSTRRLNECISPVANEMNHLPAHSHDLQRMFTEDQGVDDRLLYDIVFKHFKRNKVEISNAIKKTFPFLEGLRDRDLITNKMFEDSQDSCRNLVPVQRVVYNVLSELEKTFNLPVLEALFSDVNMQEYPDLIHIYKGFENVIHDKLPLQESEEEEREERSGLQLSLEQGTGENSFRSLTWPPSGSPSHAGTTPPENGLSEHPCETEQINAKRKDTTSDKDDSLGSQQTNEQCAQKAEPTESCEQIAVQVNNGDAGREMPCPLPCDEESPEAELHNHGIQINSCSVRLVDIKKEKPFSNSKVECQAQARTHHNQASDIIVISSEDSEGSTDVDEPLEVFISAPRSEPVINNDNPLESNDEKEGQEATCSRPQIVPEPMDFRKLSTFRESFKKRVIGQDHDFSESSEEEAPAEASSGALRSKHGEKAPMTSRSTSTWRIPSRKRRFSSSDFSDLSNGEELQETCSSSLRRGSGSQPQEPENKKCSCVMCFPKGVPRSQEARTESSQASDMMDTMDVENNSTLEKHSGKRRKKRRHRSKVNGLQRGRKKDRPRKHLTLNNKVQKKRWQQRGRKANTRPLKRRRKRGPRIPKDENINFKQSELPVTCGEVKGTLYKERFKQGTSKKCIQSEDKKWFTPREFEIEGDRGASKNWKLSIRCGGYTLKVLMENKFLPEPPSTRKKRILESHNNTLVDPCEEHKKKNPDASVKFSEFLKKCSETWKTIFAKEKGKFEDMAKADKAHYEREMKTYIPPKGEKKKKFKDPNAPKRPPLAFFLFCSEYRPKIKGEHPGLSIDDVVKKLAGMWNNTAAADKQFYEKKAAKLKEKYKKDIAAYRAKGKPNSAKKRVVKAEKSKKKKEEEEDEEDEQEEENEEDDDK
B9: VAV1, P15498 (protein)
chain: MELWRQCTHWLIQCRVLPPSHRVTWDGAQVCELAQALRDGVLLCQLLNNLLPHAINLREVNLRPQMSQFLCLKNIRTFLSTCCEKFGLKRSELFEAFDLFDVQDFGKVIYTLSALSWTPIAQNRGIMPFPTEEESVGDEDIYSGLSDQIDDTVEEDEDLYDCVENEEAEGDEIYEDLMRSEPVSMPPKMTEYDKRCCCLREIQQTEEKYTDTLGSIQQHFLKPLQRFLKPQDIEIIFINIEDLLRVHTHFLKEMKEALGTPGAANLYQVFIKYKERFLVYGRYCSQVESASKHLDRVAAAREDVQMKLEECSQRANNGRFTLRDLLMVPMQRVLKYHLLLQELVKHTQEAMEKENLRLALDAMRDLAQCVNEVKRDNETLRQITNFQLSIENLDQSLAHYGRPKIDGELKITSVERRSKMDRYAFLLDKALLICKRRGDSYDLKDFVNLHSFQVRDDSSGDRDNKKWSHMFLLIEDQGAQGYELFFKTRELKKKWMEQFEMAISNIYPENATANGHDFQMFSFEETTSCKACQMLLRGTFYQGYRCHRCRASAHKECLGRVPPCGRHGQDFPGTMKKDKLHRRAQDKKRNELGLPKMEVFQEYYGLPPPPGAIGPFLRLNPGDIVELTKAEAEQNWWEGRNTSTNEIGWFPCNRVKPYVHGPPQDLSVHLWYAGPMERAGAESILANRSDGTFLVRQRVKDAAEFAISIKYNVEVKHIKIMTAEGLYRITEKKAFRGLTELVEFYQQNSLKDCFKSLDTTLQFPFKEPEKRTISRPAVGSTKYFGTAKARYDFCARDRSELSLKEGDIIKILNKKGQQGWWRGEIYGRVGWFPANYVEEDYSEYC

These binders were tested against nucleoprotein N of Crimean-Congo hemorrhagic fever virus (assay: AlphaScreen luminescence signal relative to Venus negative control (fold); higher = stronger binding to CCHFV N).
Procedure: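 AlphaScreen binding of cell-free made, FLAG-GST-tagged human transcription factors and regulators (crude translation products) to biotinylated N protein; signal as fold of the FLAG-GST-Venus control. One pass.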
In the case of B1, the AlphaScreen luminescence signal is reported as 1.44.
For B2, the AlphaScreen luminescence signal was 1.91.
For B3, the AlphaScreen luminescence signal was 2.37.
B4 was tested, and the AlphaScreen luminescence signal was 2.42.
For B5, the AlphaScreen luminescence signal was 1.53.
B6 showed an AlphaScreen luminescence signal of 3.26.
With B7 the AlphaScreen luminescence signal was 2.23.
B8 showed an AlphaScreen luminescence signal of 1.02.
In the case of B9, the AlphaScreen luminescence signal is reported as 2.05.
